Reference: PubChem BioAssay AID488969 (Vanderbilt High Throughput Screening Facility, 2010)
Over roughly 110,000 compounds, “z-score” has its median near -0.1; the highest 2% begin near 2. The list shows a part of the results. Active and inactive are the calls of the source.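 How the source made its calls: active means z-score in the third read window above 3 or below -3; inactive means the rest.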

These molecules were tested against Metabotropic glutamate receptor 8 (Rattus norvegicus) (UniProt P70579) (assay: rat mGluR8 modulators via GIRK flux, primary screen, cell-based, thallium flux, HTS (AID 488969)). Settings: HEK293 rat mGluR8, GIRK (G protein-gated inwardly rectifying potassium channel) thallium flux, FluoZin2; at 10 µM; stronger effect = higher value; submaximal glutamate (EC20) added with thallium.
UniProt P70579, sequence (P70579 whole entry, looked up): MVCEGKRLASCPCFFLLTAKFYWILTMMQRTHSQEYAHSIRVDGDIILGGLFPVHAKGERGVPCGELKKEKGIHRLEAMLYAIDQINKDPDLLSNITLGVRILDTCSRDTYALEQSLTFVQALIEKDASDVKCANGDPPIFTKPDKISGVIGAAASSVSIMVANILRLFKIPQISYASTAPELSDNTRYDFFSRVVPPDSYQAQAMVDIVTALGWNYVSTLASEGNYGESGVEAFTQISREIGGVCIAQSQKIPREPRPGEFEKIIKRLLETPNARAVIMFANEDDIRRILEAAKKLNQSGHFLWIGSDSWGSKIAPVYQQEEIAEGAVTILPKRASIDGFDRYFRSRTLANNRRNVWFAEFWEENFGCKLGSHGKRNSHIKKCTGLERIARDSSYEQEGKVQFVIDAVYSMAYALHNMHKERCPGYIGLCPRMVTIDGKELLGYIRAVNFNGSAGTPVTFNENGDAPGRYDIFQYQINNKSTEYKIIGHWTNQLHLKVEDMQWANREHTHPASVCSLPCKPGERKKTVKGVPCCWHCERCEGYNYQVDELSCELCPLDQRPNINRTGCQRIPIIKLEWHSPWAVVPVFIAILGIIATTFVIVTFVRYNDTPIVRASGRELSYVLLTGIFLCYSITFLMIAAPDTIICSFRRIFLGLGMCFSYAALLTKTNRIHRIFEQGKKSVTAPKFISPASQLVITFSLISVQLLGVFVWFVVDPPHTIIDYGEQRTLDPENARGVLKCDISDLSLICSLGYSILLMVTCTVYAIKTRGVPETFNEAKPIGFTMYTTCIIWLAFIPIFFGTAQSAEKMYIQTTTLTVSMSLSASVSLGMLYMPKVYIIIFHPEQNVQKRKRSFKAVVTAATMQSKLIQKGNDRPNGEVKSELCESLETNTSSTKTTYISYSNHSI

Row | Structure (SMILES) | z-score
1 | Cc1nc(CN2CCN(C(=O)NC3(c4ccccc4)CC3)CC2)cs1 | -0.25
2 | Cc1c(C(=O)Nc2nc3ccccc3[nH]2)oc2c(Cl)cccc12 | 0.503
3 | COCCN(C(=O)CNC(=O)c1ccco1)C(C(=O)NC1CCCCC1)c1cccs1 (stereo not drawn) | -0.0787
4 | CNC(=O)C1CC(=O)N(Cc2ccc3c(c2)OCO3)C(=Nc2ccc(F)cc2)S1 (stereo not drawn) | -0.565
5 | CC1(C)N=C(/C=N/O)CN1O | 0.0569
6 | COc1ccc(C(C(=O)NC(C)(C)C)N(Cc2cccs2)C(=O)CCC(=O)Nc2cc(C)on2)cc1 (stereo not drawn) | -0.379
7 | Fc1ccccc1Nc1nc2c(s1)CCc1ccccc1-2 | -0.0906
8 | O=C(CCC(=O)c1cccs1)OCc1nnc(-c2ccccc2)o1 | 1.19
9 | Cc1cc(NC(=O)C2CC(c3ccc(Cl)cc3)=NO2)no1 (stereo not drawn) | -0.101
10 | CC(CN1CCCCC1)OC(=O)c1ccccc1Cl (stereo not drawn) | 0.106
11 | Cn1cc([N+](=O)[O-])c(C(=O)Nc2ccc(-c3nc4ccccc4[nH]3)cc2)n1 | -0.22
12 | CC(C)CCn1c(O)c(N=Nc2ccccn2)c2ccccc21 | 1.19
13 | Cn1c(CN2CCOCC2)nnc1SCC(=O)NCCc1ccccc1 | -0.197
14 | COc1ccccc1NC(c1cccnc1)c1ccc2cccnc2c1O (stereo not drawn) | -0.576
15 | O=C(N/N=C/c1ccco1)c1ccncc1 | 0.0764
16 | CN(C)C(=O)C12CCC(C)(c3nc4ccccc4nc31)C2(C)C (stereo not drawn) | 0.0165
17 | CCOCCCNS(=O)(=O)c1ccc(NC(=O)N2c3ccccc3Sc3ccccc32)cc1 | -0.106

Row | Structure (SMILES) | z-score
18 | O=C(Cc1ccc(Cl)cc1)NC(=S)Nc1ccccc1N1CCOCC1 | 0.883
19 | CCOCCc1nnc(N)s1 | 0.185
20 | Cc1nc2c3ccccc3n(Cc3ccccc3F)c2s1 | -0.158
21 | O=C(Nc1cc2c(cc1Cl)OCCCO2)c1ccccc1 | -0.185
22 | O=C(c1ccc(Br)cc1)C1CCc2occc2C1=O (stereo not drawn) | 0.304
23 | COc1cccc(NC(=O)CSCC(=O)O)c1 | 0.785
24 | c1ccc(-c2nnc(Cn3c4ccccc4c4nc5ccccc5nc43)o2)cc1 | 0.244
25 | O=C1/C(=C/c2cccs2)COc2ccccc21 | -0.229
26 | CCOC(=O)C(C(=O)OCC)c1cc(Br)c2noc3c2c1C(=O)c1ccccc1-3 | active: -4.38
27 | CNC(=O)CSCc1c(Cl)cccc1Cl | 0.903
28 | O=C(CCCSc1ccccc1)Nc1nc(-c2ccccn2)cs1 | -0.234
29 | CC(C)NS(=O)(=O)c1ccc(OCC(=O)NCC2CCCO2)c(Cl)c1 (stereo not drawn) | -0.367
30 | Cc1ccc(OCC(=O)NNC(=O)C2CCN(c3nccc(C)n3)CC2)cc1 | -0.239
31 | Cc1[nH]nc2c1/C(=N/O)CC(c1ccccc1)C2 (stereo not drawn) | 0.0216
32 | COc1ccc(-c2nnc(SCC(=O)Nc3ccc4c(c3)OCCO4)n2N)cc1OC | -0.393
33 | CNC(=O)c1ccc(Nc2nnc(-c3ccc(C)c(S(=O)(=O)NCC4CCCO4)c3)c3ccccc23)cc1 (stereo not drawn) | -0.359
